This is one part of the list. The energies were worked out here from pooled read counts, against the library average; single values are noisy.

The assay has as its target T1, Pho4 (S. cerevisiae) (UniProt P07270).
T1 sequence: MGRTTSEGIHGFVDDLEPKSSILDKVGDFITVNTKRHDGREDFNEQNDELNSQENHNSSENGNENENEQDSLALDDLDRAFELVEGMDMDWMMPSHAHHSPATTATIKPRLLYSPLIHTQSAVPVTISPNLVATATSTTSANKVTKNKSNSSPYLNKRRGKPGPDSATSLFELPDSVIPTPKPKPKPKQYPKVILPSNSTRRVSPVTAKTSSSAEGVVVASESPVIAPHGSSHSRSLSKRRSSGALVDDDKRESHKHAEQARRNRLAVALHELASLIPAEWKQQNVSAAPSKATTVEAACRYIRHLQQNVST
As to the kind of experiment: relative binding free energy (BET-seq); higher = weaker binding. The following applies: reference: library average.
For the sequence TGAGGCACGTGTTTAT, the “relative binding free energy” value is -0.1 kcal/mol.

On to AGAGTCACGTGTGTTA, for which the “relative binding free energy” value worked out at 0.13 kcal/mol.

Consider ACAGGCACGTGCGGTT, for which the “relative binding free energy” value is -0.15 kcal/mol.

GGGGCCACGTGGGCGT: the “relative binding free energy” value was -0.36 kcal/mol.

Turning to GCTATCACGTGGGGAT, the “relative binding free energy” value was found to be 0.07 kcal/mol.

As to TCGTGCACGTGGTGCG, the “relative binding free energy” value is -0.12 kcal/mol.

For AGAAGCACGTGGTGAG, the “relative binding free energy” value was -0.14 kcal/mol.

Consider GCGGCCACGTGAAGGT, for which the “relative binding free energy” value came to 0.25 kcal/mol.

Turning to TGGGCCACGTGCTGTG, the “relative binding free energy” value is -0.07 kcal/mol.

With CTTGGCACGTGTGTTC, the “relative binding free energy” value was -0.04 kcal/mol.

Consider GAGTGCACGTGGATAT, for which the “relative binding free energy” value amounted to 0.02 kcal/mol.

Consider GTGTGCACGTGGTTAG, for which the “relative binding free energy” value was 0.03 kcal/mol.

As for TGTCGCACGTGGTCTG, the “relative binding free energy” value was -0.14 kcal/mol.

On to ATGGACACGTGGAGGA, for which the “relative binding free energy” value worked out at 0.04 kcal/mol.

For ACTGTCACGTGTTGTT, the “relative binding free energy” value was 0.1 kcal/mol.

As for GTTGGCACGTGATCTA, the “relative binding free energy” value was determined as 0.03 kcal/mol.

Regarding TGGGTCACGTGCGAAT, the “relative binding free energy” value worked out at 0.13 kcal/mol.

For the sequence ATATACACGTGAGGGG, the “relative binding free energy” value worked out at 0.11 kcal/mol.

For the sequence ATAGTCACGTGTATCG, the “relative binding free energy” value was determined as 0.12 kcal/mol.

Consider CGAGACACGTGGGTTG, for which the “relative binding free energy” value is -0.23 kcal/mol.

Regarding AGTGACACGTGAAATG, the “relative binding free energy” value was 0.13 kcal/mol.

Regarding CAGTTCACGTGTATTT, the “relative binding free energy” value turned out to be 0.29 kcal/mol.

Consider GGATTCACGTGGCGAG, for which the “relative binding free energy” value turned out to be 0.22 kcal/mol.

On to CGGGACACGTGCGGTG, for which the “relative binding free energy” value is -0.13 kcal/mol.

Regarding AAGGTCACGTGATGTA, the “relative binding free energy” value amounted to 0.25 kcal/mol.

In the case of TTGTTCACGTGTAGGA, the “relative binding free energy” value worked out at 0.26 kcal/mol.

Turning to ATGTTCACGTGAGGAG, the “relative binding free energy” value came to 0.27 kcal/mol.

Regarding ATTTGCACGTGTAGGA, the “relative binding free energy” value was 0.03 kcal/mol.

Take TGTACCACGTGGAGTG: the “relative binding free energy” value is -0.07 kcal/mol.

Take GGTGCCACGTGGAGTT: the “relative binding free energy” value was 0.01 kcal/mol.

AGTTTCACGTGTGATC: the “relative binding free energy” value is 0.31 kcal/mol.

For the sequence GATTGCACGTGAATTG, the “relative binding free energy” value amounted to 0.34 kcal/mol.

As to GTTGGCACGTGTATCG, the “relative binding free energy” value is 0.13 kcal/mol.

Consider GCATGCACGTGGCTTG, for which the “relative binding free energy” value came out at 0.01 kcal/mol.

As to TTGCGCACGTGAATTA, the “relative binding free energy” value was found to be 0.17 kcal/mol.

As to GATAGCACGTGTCGGG, the “relative binding free energy” value is 0.05 kcal/mol.

Take AGGTTCACGTGATGAT: the “relative binding free energy” value turned out to be 0.25 kcal/mol.

Take TGATTCACGTGCAGGG: the “relative binding free energy” value worked out at 0.14 kcal/mol.

For ATCTTCACGTGTGTCT, the “relative binding free energy” value came out at 0.24 kcal/mol.

Take TAAGACACGTGAGTGT: the “relative binding free energy” value amounted to 0.17 kcal/mol.

On to GCGGTCACGTGTGCTT, for which the “relative binding free energy” value turned out to be 0.18 kcal/mol.

As to GGCGGCACGTGTGCGA, the “relative binding free energy” value was -0.02 kcal/mol.

Take TAGTGCACGTGAATGT: the “relative binding free energy” value was determined as 0.22 kcal/mol.

For GGATGCACGTGGTGTT, the “relative binding free energy” value came to 0 kcal/mol.

Turning to TTCAACACGTGTGGAG, the “relative binding free energy” value was found to be 0.11 kcal/mol.

Consider GTATCCACGTGGGGTA, for which the “relative binding free energy” value was found to be 0.01 kcal/mol.

Consider GGGCTCACGTGCGTTT, for which the “relative binding free energy” value was 0.23 kcal/mol.

As for TGTTCCACGTGGAGTA, the “relative binding free energy” value came out at 0.04 kcal/mol.

For GTTACCACGTGGGTTA, the “relative binding free energy” value is -0.16 kcal/mol.

Turning to GTTGTCACGTGGAACG, the “relative binding free energy” value stood at 0.13 kcal/mol.

In the case of GGATGCACGTGTGCGA, the “relative binding free energy” value is -0.13 kcal/mol.

Take GTGCGCACGTGTAGTT: the “relative binding free energy” value was 0.01 kcal/mol.

As for TTGTCCACGTGGGATG, the “relative binding free energy” value is -0.09 kcal/mol.

Regarding AAGATCACGTGGTGTT, the “relative binding free energy” value worked out at 0.04 kcal/mol.

Consider GATTCCACGTGTTGTT, for which the “relative binding free energy” value was 0.08 kcal/mol.

Take GTGCACACGTGTTGAG: the “relative binding free energy” value stood at 0.05 kcal/mol.

For GTGGGCACGTGTCGGA, the “relative binding free energy” value was found to be 0.05 kcal/mol.

For the sequence TGTGTCACGTGTGATT, the “relative binding free energy” value was 0.24 kcal/mol.

ATAGCCACGTGGTTTA: the “relative binding free energy” value is -0.05 kcal/mol.

As to ATTTGCACGTGTTGAA, the “relative binding free energy” value amounted to 0.05 kcal/mol.

On to GTCGGCACGTGGGTCT, for which the “relative binding free energy” value was -0.27 kcal/mol.

As for GTAGTCACGTGCTTGT, the “relative binding free energy” value was -0.02 kcal/mol.

As for TGTAGCACGTGAATGT, the “relative binding free energy” value was 0.22 kcal/mol.

These data come from the BET-seq Pho4 binding data (Le et al. 2018).
